Results: PubChem BioAssay AID651568 (National Center for Advancing Translational Sciences (NCATS), 2012)
The whole screen tested about 1,200 compounds, of which about 55 (5%) were called active. Another 15% or so got no clear call; they are omitted. Calls follow the shape of the dose curve; as a rule, active = well fitted inhibition curve with a large enough effect; inconclusive = small, poorly fitted or top-dose-only effect; inactive = no such curve, though single readings can be large or run the other way. This is one part of the list.

assay: qHTS Assay to Find Inhibitors of Chronic Active B-Cell Receptor Signaling: Hit Validation in Renilla Reporter Assay; details: TMD8 IkB-Renilla luciferase reporter, NF-kB signaling; series mostly up to 57.5 µM; activity change, negative = inhibition: at the top concentration; also: nearly all actives have a fitted effect of over 70% in size
From the text: Diffuse large B-cell lymphoma (DLBCL) is the most common category of non-Hodgkin lymphoma, with ~20,000 new cases per year in the United States. DLBCL should be regarded as a collection of different neoplasms. Microarray gene expression analysis has defined two principal types of DLBCL, named for their similarity to normal B cell stages or activation states: a germinal center B-cell (GCB) type, and an activated B-cell (ABC) type. In ABC-DLBCL, a constitutive high-level activity of the NF-kappaB family of transcription factors has been observed (1) and NF-kappaB target genes are more highly expressed in ABC primary tumors than in GCB tumors. Functional studies have shown a constitutive high-level activity of the IkappaB (inhibitor of kappa-B) kinase (IKK) complex. […] Further analysis of DLBCL primary tumors for NF-kappaB target gene expression imply that although CARD11 is required for constitutive IKK activity in all ABC-DLBCL lines, mutations in CARD11 may be the root cause of IKK activation only in lines or tumors with such mutations. In other words, CARD11 mutations may explain NF-kappaB activation in only 10% of ABC-DLBCL cases. […] This process has been termed 'chronic active BCR signaling' (CABS). The goal of this screen is to find small-molecule inhibitors of the CABS pathway found in ABC-DLBCL lines using a cell-based assay that measures IkappaBalpa stability, which has already been extensively validated in the OCI-Ly3 line (PubChem AID:445; REF: 4). […] Hits from the primary screen were tested in this orthogonal secondary assay. NIH Molecular Libraries Probe Production Network [MLPCN] NIH Chemical Genomics Center [NCGC] MLPCN Grant: R03 DA031086 PI Name: Dr. R. Eric Davis
The IkB-Photinus/Renilla reporter assay differs from the primary assay in that the reporters are constitutively expressed, and based on luciferases that are different from the click beetle luciferases and each other. These differences should help to eliminate artifactual sources of activity specific to the primary assay. This assay uses the Dual-Glo substrate from Promega; extensively validated in a 96-well format, it could be converted to a smaller-well format. All lines needed for the IkB-Photinus/Renilla assay have already been prepared and extensively validated
% is scaled to controls: 0 for no effect and ±100 for the full control effect; potency is read from the fitted curve at half-maximal effect.

Structure (SMILES) | activity change, negative = inhibition | Potency
CC(=O)Nc1ccc(NS(=O)(=O)c2cc(-c3n[nH]c(=O)c4ccccc34)ccc2C)cc1 | inactive: 19.6% | –
Cc1c(CCC(=O)N[C@@H](CCCNC(N)=O)C(=O)O)c(=O)oc2cc3oc4c(c3cc12)CCCC4 | inactive: -12.2% | –
CC1=NN(C(N)=S)C(=O)C1N=Nc1ccccc1 (stereo not drawn) | inactive: -1.3% | –
CCOc1cc(NC(=O)CCl)c(OCC)cc1NC(=O)CCl | inactive: -23.9% | –
Nc1nc(N)c(N=O)c(OCC2CCCCC2)n1 | inactive: -27.9% | –
CCOc1c(Br)cc(CNc2ccc3c(c2)OCCO3)cc1OC | inactive: -16.9% | –
CC(C)(C)NNC(=S)Nc1cccc(C(F)(F)F)c1 | inactive: 25.8% | –
Cc1ccc(NC(=O)/C=C/c2ccco2)nc1 | inactive: -0.453% | –
CC(/C=N/NC(=O)c1cc(-c2ccc(Cl)cc2)nc2ccccc12)=C\c1ccco1 | inactive: -13% | –
Cc1ccc(CNC(=O)Cc2ccc(-n3c(=O)[nH]c4ccsc4c3=O)cc2)cc1 | inactive: 5.72% | –
Cc1nn(C)cc1CNC(=O)COc1ccc(Cl)cc1Cl | inactive: -17.4% | –
Cc1nn(Cc2ccccc2)c2c1C(c1ccccc1)C(C#N)=C(N)O2 (stereo not drawn) | inactive: -20.3% | –
C=CCn1c(SC2CCOC2=O)nc2sc(C)c(C)c2c1=O (stereo not drawn) | inactive: 20.1% | –
CCCCOc1ccc2c(C)cc(=O)oc2c1OCCCC | inactive: 6.6% | –
COc1ccc(C2CC(c3ccncc3)=NN2c2ccc(S(N)(=O)=O)cc2)cc1 (stereo not drawn) | inactive: 44.1% | –
CCC(=NCCc1c(C)[nH]c2ccc(C)cc12)C1=C(O)CC(c2ccccc2)CC1=O (stereo not drawn) | inactive: -14.9% | –
O=C(N/N=C/C(Br)=C\c1ccccc1)c1ccc2nc[nH]c2c1 | inactive: 26.4% | –
CCCn1nnc(NC(=S)NC(=O)c2ccc(-c3ccc(Br)cc3)o2)n1 | inactive: -0.845% | –
COc1cc(C2C(C#N)=C(N)Oc3cc4c(cc32)OCO4)cc(OC)c1OC (stereo not drawn) | inactive: -15.9% | –
COc1ccccc1NS(=O)(=O)c1cccc(C(=O)N/N=C/c2cn(-c3ccccc3)nc2-c2ccccc2)c1 | inactive: 12.3% | –
CC(=O)c1c(C)[nH]c(C(=O)OCC(=O)c2c[nH]c3ccccc23)c1C | inactive: -20.1% | –
NC(=S)N/N=C\c1ccc(-c2cccc(Cl)c2Cl)o1 | inactive: -21.4% | –
O=C(Cc1ccc(-n2c(=O)c3ccccc3n(Cc3ccccc3F)c2=O)cc1)NCC1CCCO1 (stereo not drawn) | inactive: -0.408% | –
Nc1ncnc2c1ncn2C1OC(COP(=O)(O)O)C(O)C1O (stereo not drawn) | inactive: 8.07% | –
CCCCOc1ccccc1C1CC(=O)NC2=C1C(=O)CCC2 (stereo not drawn) | inactive: -0.121% | –
CC1=Nc2cc(C(=O)NC3CCCCC3)ccc2Sc2ccc(Cl)cc21 | inactive: -18.2% | –
CCc1ccc(NC(=O)CSc2nc(=O)n(CCCN3CCOCC3)c3c2CCCC3)cc1 | inactive: 0.311% | –

Structure (SMILES) | activity change, negative = inhibition | Potency
C/C(=N\NC(=O)c1c([N+](=O)[O-])c(C)nn1C)c1ccc(NC(=O)C2CCCC2)cc1 | inactive: 5.23% | –
Cc1noc(C)c1CSc1nc2[nH]ncc2c(=O)n1-c1ccccc1 | inactive: -19.9% | –
CCC1=Nc2cc(C(=O)NCc3ccco3)ccc2Sc2ccc(C)cc21 | inactive: -16.4% | –
S=C(NCc1ccc2[nH]c3c(c2c1)CCCC3)Nc1ccccc1 | inactive: -25.8% | –
COc1cc2sc(-c3ccccc3OC)c(-c3ccc(OCCN4CCOCC4)cc3)c2cc1OC | inactive: -6.95% | –
COc1cc(OC)c2c(-c3cccc(-c4ccc(NC(C)=O)cc4)c3)cc(=O)oc2c1 | inactive: -17.9% | –
CC1CCN(C(=O)CCCOc2cc(=O)n(C)c3ccccc23)CC1 | inactive: 8.3% | –
Cc1ccc(-c2ccc(/C=N/NC(N)=S)o2)cc1 | inactive: -2.52% | –
O=[N+]([O-])c1ccccc1S(=O)(=O)Nc1cccc2cccnc12 | inactive: -12.9% | –
Nc1nc(Cl)nc2c1ncn2[C@@H]1O[C@H](CO)[C@@H](O)[C@H]1O | inactive: -0.157% | –
Cc1cc(C)cc(C(=O)N2CC(=O)Nc3ccccc32)c1 | inactive: -19.3% | –
COc1ccc(NC(=S)N/N=C/c2ccc(F)cc2)cc1OC | inactive: 2.21% | –
COc1ccc(-c2noc(CSc3nc(N)c(-c4ccccc4)c(=O)[nH]3)n2)cc1 | inactive: -24.5% | –
C/C(=N\NC(=S)NC1CCCCC1)c1ccc(C)o1 | inactive: 32.3% | –
Nc1ncnc2c1ncn2[C@@H]1O[C@H](CNCc2ccc(-c3cc(C(F)(F)F)ccc3Cl)o2)[C@@H](O)[C@H]1O | inactive: 2.18% | –
S=c1[nH]nc(-c2ccco2)n1/N=C/C(Cl)=C/c1ccccc1 | – | active: 26.9 µM
CCCC(C)NC(=O)c1ccc(C2SCC(=O)N2Cc2ccco2)cc1 (stereo not drawn) | inactive: 4.17% | –
COc1ccc(-c2c(C)c3ccc(O)cc3oc2=O)cc1 | inactive: 7.08% | –
Cn1c(=O)n(C)c2cc(NS(=O)(=O)c3ccc(Br)s3)ccc21 | inactive: 36.7% | –
O=C(CNCc1ccccc1)Nc1ccc(Oc2ccccc2)cc1 | inactive: 12.7% | –
CCN(CC)S(=O)(=O)c1ccc(N2CCOCC2)c(NC(=O)c2c3c(nc4ccccc24)CCC3)c1 | inactive: -0.0951% | –
CCOc1ccccc1C(=O)N1CCN(c2cccc(Cl)c2)CC1 | inactive: -20.3% | –
COc1ccc(OC)c(S(=O)(=O)Nc2ccc(-c3ccc4nnc(C)n4n3)cc2)c1 | inactive: 53.8% | –
COCCn1c(-c2cccc([N+](=O)[O-])c2)nc2c1c(=O)[nH]c(=O)n2Cc1ccccc1 | inactive: -17.5% | –
O=C(N/N=C/c1ccccc1)c1[nH]c2ccc(Br)cc2c1-c1ccccc1 | inactive: 18.4% | –
COCCOC(=O)c1[nH]c2c(c1C)C(=O)CC(c1ccccc1)C2 (stereo not drawn) | inactive: -12% | –
